# Reference: paper PMC4336329 (PLoS ONE, 2015)
# In all, about 310,000 compounds went through this assay and about 2,200 (0.71%) showed an effect of 50% or more. The effect is printed as a negative number. The list shows a part of the results.
# Target: human ether-à-go-go-related gene (hERG) potassium channel (human, UniProt Q12809)
# Assay: primary screen, population patch clamp on CHO cells stably expressing hERG
# Sequence of human ether-à-go-go-related gene (hERG) potassium channel (Q12809 whole entry, looked up): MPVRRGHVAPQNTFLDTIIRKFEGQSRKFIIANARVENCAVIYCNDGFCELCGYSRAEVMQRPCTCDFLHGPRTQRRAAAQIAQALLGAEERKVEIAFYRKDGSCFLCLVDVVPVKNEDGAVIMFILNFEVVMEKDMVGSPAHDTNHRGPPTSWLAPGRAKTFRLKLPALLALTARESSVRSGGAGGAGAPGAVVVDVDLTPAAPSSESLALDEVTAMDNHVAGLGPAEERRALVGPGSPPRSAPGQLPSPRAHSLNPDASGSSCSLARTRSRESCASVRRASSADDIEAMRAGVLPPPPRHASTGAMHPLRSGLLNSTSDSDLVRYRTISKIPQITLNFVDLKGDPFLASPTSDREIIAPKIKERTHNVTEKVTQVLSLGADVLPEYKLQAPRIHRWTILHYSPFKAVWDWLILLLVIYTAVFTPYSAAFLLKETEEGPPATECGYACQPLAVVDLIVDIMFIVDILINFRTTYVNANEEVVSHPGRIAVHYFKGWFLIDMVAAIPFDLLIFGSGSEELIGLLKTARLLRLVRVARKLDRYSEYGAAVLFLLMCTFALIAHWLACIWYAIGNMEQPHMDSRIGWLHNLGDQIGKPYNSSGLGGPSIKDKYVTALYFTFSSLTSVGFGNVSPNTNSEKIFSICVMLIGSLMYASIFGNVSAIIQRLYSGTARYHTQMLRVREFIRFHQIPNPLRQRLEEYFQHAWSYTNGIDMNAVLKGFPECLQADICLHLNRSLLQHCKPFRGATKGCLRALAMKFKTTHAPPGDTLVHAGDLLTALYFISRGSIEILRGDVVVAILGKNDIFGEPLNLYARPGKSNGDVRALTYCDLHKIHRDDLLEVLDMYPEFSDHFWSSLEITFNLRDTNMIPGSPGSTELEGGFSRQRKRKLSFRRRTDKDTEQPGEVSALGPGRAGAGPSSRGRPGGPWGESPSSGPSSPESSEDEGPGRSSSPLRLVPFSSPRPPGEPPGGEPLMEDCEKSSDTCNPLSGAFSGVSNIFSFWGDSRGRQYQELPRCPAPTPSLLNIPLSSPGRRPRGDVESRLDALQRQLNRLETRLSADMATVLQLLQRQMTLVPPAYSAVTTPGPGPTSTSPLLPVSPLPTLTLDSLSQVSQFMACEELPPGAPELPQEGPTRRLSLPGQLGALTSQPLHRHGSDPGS
row,Compound,"hERG current change (%, negative = inhibition) at 1uM [%]"
1,COc1ccc2oc(C(=O)Nc3nc4ccccc4[nH]3)c(C)c2c1,9.68
2,Cc1cc(C(=O)C(C)Cl)c(C)n1Cc1ccco1 (stereo not drawn),9.13
3,Cc1ccc(S(=O)(=O)/N=C(/Nc2cccc(O)c2)c2ccccc2)cc1,6.94
4,CN(C)C(CNS(=O)(=O)c1ccc(Br)cc1)c1cccnc1 (stereo not drawn),-3.26
5,Cc1ccc(S(=O)(=O)N2CCCC(c3nnc4n3-c3ccccc3SC4)C2)cc1 (stereo not drawn),-40.4
6,Cc1cccc(-n2c(C)cc(/C=N/NC(N)=S)c2C)c1,-8.61
7,CSCCC(=O)N1CCCC(N(C)CCc2ccccc2)C1 (stereo not drawn),-27.3
8,NS(=O)(=O)c1ccc(NC(=O)COC(=O)c2ccc([N+](=O)[O-])s2)cc1,11.4
9,CCc1ccc(OC)c(S(=O)(=O)Nc2ccccc2C)c1,6.02
10,COc1ccc(C)cc1Nc1n[n+](C)c(-c2c3ccccc3cc3ccccc23)s1.[Cl-],9.85
11,CCOc1cc(C(=O)Nc2cc3c(cc2N2CCOCC2)n(C)c(=O)n3C)cc(OCC)c1OCC,9.01
12,CCOC(=O)/C(C#N)=C1/SC(CC)C(=O)N1c1ccc(C)cc1 (stereo not drawn),-0.132
13,O=C(NCC1CC1)[C@@H]1C[C@H]1[C@@H](NP(=O)(c1ccccc1)c1ccccc1)c1ccccc1,4.98
14,c1ccc(SCCN2CCc3ccccc3C2)cc1,10.6
15,COC(=O)c1cc(NC(=S)N2CCN(c3ccccn3)CC2)cc(C(=O)OC)c1,0.17
16,Cc1ccc(NC(=O)c2ccc3c(c2)OCCO3)nc1,17.2
17,Cc1cccc(C)c1NC(=O)CSc1nc(N2CCOCC2)nc(N2CCOCC2)n1,13.8
18,CC(O)(CS(=O)(=O)Cc1ccccc1)c1ccccc1Cl (stereo not drawn),17.3
19,Oc1ccccc1CN(Cc1ccco1)CC(O)COCc1ccc(Cl)cc1 (stereo not drawn),13.1
20,Cc1cccc(Nc2c([N+](=O)[O-])c(=O)oc3ccccc23)c1,2.85
21,C/C(=N\Nc1ccc([N+](=O)[O-])cc1[N+](=O)[O-])c1ccc(-n2nncc2C(C)(C)C)cc1,7.47
22,O=C(NCCCN1CCOCC1)C(=O)NCc1ccccc1,-1.08
23,CNC(=O)c1cc(Nc2nnc(-c3ccc(C)c(S(N)(=O)=O)c3)c3ccccc23)ccc1OC,11.4

row,Compound,"hERG current change (%, negative = inhibition) at 1uM [%]"
1,CCC(C)[C@H](NC(=O)N1CCCCC1)C(=O)OC (stereo partly drawn),1.88
2,C(=C\c1ccccc1)/CSc1nnc(-c2cnccn2)n1Cc1ccco1,-25.2
3,CC(=O)NN1C(=O)c2ccccc2NC1c1ccc([N+](=O)[O-])o1 (stereo not drawn),-3.31
4,COc1ccc(C(CNC(=O)c2ccco2)N2CCCCC2)cc1 (stereo not drawn),10.3
5,CCC(NC(=O)Nc1cc(OC)c(OC)c(OC)c1)(C(F)(F)F)C(F)(F)F,3.77
6,O=C(CCc1nnc2ccc(NCc3ccccc3Cl)nn12)NC1CCCCC1,2.72
7,COc1cccc(OCc2ccc(Cl)cc2)c1C#N,10.2
8,COc1cccc(NC(=O)C2c3cc(OC)c(OC)cc3C(=O)N(C)C2c2cccnc2)c1 (stereo not drawn),1.83
9,CCOc1ccc(CN(C(=O)/C=C/c2ccco2)C2CCS(=O)(=O)C2)cc1 (stereo not drawn),4.16
10,O=C(CN1CCN(S(=O)(=O)c2ccccc2)CC1)Nc1ccc2c(c1)CCC2,8.5
11,O=C(Nc1ccccc1N1CCN(C(=O)c2ccc(Cl)cc2)CC1)c1cc2ccccc2o1,6.77
12,Cc1cccc(NC(=O)c2ccc([N+](=O)[O-])o2)c1,13.3
13,CC1CCN(C(=O)C(=O)c2cn(CC(=O)N3CCCCCC3)c3ccccc23)CC1,7.77
14,CSc1nc(N2CCN(C)CC2)c2ccccc2n1,-13.6
15,O=C1N=c2ccccc2=C1c1sc(=S)n(CC2CCCO2)c1O (stereo not drawn),10.8
16,Cc1cccc(NC(=O)Cn2c(O)c(N=NC(=O)c3ccccc3O)c3ccccc32)c1,6.51
17,N#CCCN1CCN(S(=O)(=O)c2ccc(S(=O)(=O)N3CCCCCC3)cc2)CC1,9.01
18,COc1ccc(Cl)cc1C(=O)Nc1cccnc1Cl,6.85
19,O=C(C1CC(=O)N(c2ccccc2)C1)N1CCCCCC1 (stereo not drawn),13
20,CCn1c(CNC(=O)C2CCCCC2)cc2cc(C)ccc21,18.8
21,O=CNc1ccc(OC(=O)c2cncc(Br)c2)cc1,14.1
22,O=C(NCC1CCCO1)c1cn(-c2ccccc2)nc1-c1ccc(F)cc1 (stereo not drawn),9.15
23,COC(=O)c1ccc(Cn2cnc3cnccc32)cc1,15.6

row,Compound,"hERG current change (%, negative = inhibition) at 1uM [%]"
1,Cc1cccc(C2c3[nH]c4ccccc4c3CCN2Cc2cccn2-c2ncccn2)c1 (stereo not drawn),6.48
2,CCCc1cc(=O)[nH]c(SCC(=O)c2ccc(S(=O)(=O)N3CCCC3)cc2)n1,8.15
3,COc1cccc(NC(=O)CS(=O)(=O)c2cccc3nsnc23)c1,9.29
4,CCc1ccccc1NC(=O)C(C)n1nc([N+](=O)[O-])c(Br)c1C (stereo not drawn),12
5,CCCn1c(Nc2ccccc2)nc2ccccc21,11.5
6,Cc1cc(C)c(N(C(=O)c2csnn2)C(C(=O)NC(C)(C)C)c2ccncc2)c(C)c1 (stereo not drawn),1.08
7,CC(C)N1CCN(Cc2c[nH]c3ccccc23)CC1CCO (stereo not drawn),11.7
8,COc1ccccc1CNC(=O)CSc1nnc2ccc(-c3cccnc3)nn12,4.82
9,CC1CCCCC1NC(=O)CCN1C(=O)C2C3C=CC(C3)C2C1=O (stereo not drawn),15.4
10,CC(C)OP(=O)(OC(C)C)C(O)c1ccccc1F (stereo not drawn),8.93
11,COc1ccccc1N1CCN(C(=O)Cn2cnc3c2c(=O)n(C)c(=O)n3C)CC1,9.48
12,CS(=O)(=O)N1CCN(c2ccc(NC(=O)c3cccnc3Cl)cc2)CC1,14.5
13,Cn1c(CNc2ccc(Cl)cc2)nnc1SCCN1CCCCC1,-21.4
14,CSCC[C@H](NC(=O)[C@@H]1Cc2ccccc2CN1)C(=O)NC1CCCCC1,14.7
15,Cc1ccc(NC(=O)NC(=O)N(C(C)C)S(C)(=O)=O)nc1,-3.45
16,O=C(Cc1ccccc1[N+](=O)[O-])N1CCN(c2ccccc2F)CC1,23.4
17,Cc1sc2ncnc(NCC3(N4CCOCC4)CCCCC3)c2c1C,-23
18,CC(O)CNc1nc(NCc2ccccc2)c2cnn(C)c2n1 (stereo not drawn),23.8
19,COc1ccccc1NC(=S)c1ccccc1,5.44
20,Fc1ccccc1COc1cccc2cccnc12,10.1
21,CC12CCC(C[N+](C)(C)C1)C2(C)C.[I-] (stereo not drawn),12.3
22,Cc1ccc(N(CC(=O)N2CCN(Cc3ccccc3)CC2)S(C)(=O)=O)cc1C,-0.162
23,CC(C)OCCOc1ccc2oc(-c3ccco3)cc(=O)c2c1,9.95

row,Compound,"hERG current change (%, negative = inhibition) at 1uM [%]"
1,CCOC(=O)c1ccc(N/C=C/C(=O)c2ccc(OC)cc2)cc1,9.14
2,CCOc1ccc(C2C(C(=O)c3cccs3)=C(O)C(=O)N2Cc2cccnc2)cc1OC (stereo not drawn),7.62
3,COc1ccc(C2=NN(C(=O)c3cccs3)C(c3ccc(OC)cc3)C2)cc1 (stereo not drawn),20.3
4,Cc1cc(OC(C)C(=O)N(Cc2ccco2)C2CCS(=O)(=O)C2)ccc1Cl (stereo not drawn),-4.11
5,COc1ccc(NS(=O)(=O)c2ccc(C)c(C(=O)N3CCC3)c2)cc1,7.95
6,CN(CC(=O)Nc1ccccc1Cl)C(=O)CSc1nnc(N)s1,14
7,CC(O)c1nc2ccccc2n1CCCCOc1ccccc1 (stereo not drawn),22.3
8,COCc1nnc(NC(=O)CS(=O)(=O)c2ccc(C)cc2)s1,12.5
9,Cc1ccc2c(c1)C(C)(C)[C@]1(C)NC(=O)CCN21,8.67
10,COC(=O)c1cc(-c2c(-c3cc(OC)c(OC)c(OC)c3)noc2C)cc([N+](=O)[O-])c1,3.06
11,Fc1ccc(-n2nnc(-c3ncc[nH]3)n2)cc1,9.84
12,COCc1cc(=O)n2[nH]c(-c3ccco3)cc2n1,10.6
13,O=C(CNC(=S)N(CCCN1CCOCC1)Cc1cccs1)NCc1ccc(Cl)cc1,-61.3
14,O=C(O)c1cccc(S(=O)(=O)NCCc2ccccc2)c1,3.88
15,CCc1ccc(CNC(=O)Cn2nc(-c3ccc(C)cc3)ccc2=O)cc1,-3.33
16,CCn1c(-c2ccsc2)nc2c1c(=O)[nH]c(=O)n2Cc1ccccc1,12.2
17,c1ccc(Nc2cccc(Nc3ccccc3)n2)cc1,-6.01
18,COc1ccc(-c2nn(CCC#N)cc2C(=O)Nc2ccccc2)cc1OC,-6.45
19,Cc1ccc(S(=O)(=O)N2CCN(C(=O)C3CCCO3)CC2)cc1C (stereo not drawn),15.1
20,O=C(CCNS(=O)(=O)c1ccc2[nH]c(=O)oc2c1)Nc1cccc(Br)c1,15.6
21,CC1Nc2ccccc2C(=O)N1NC(=O)c1ccc(Br)cc1 (stereo not drawn),8.24
